Measurements reported in the supplement of paper PMC9927326.

Columns and labels:
Assay in all cases: CLSI broth microdilution.
micafungin = compound: CCCCCOc1ccc(-c2cc(-c3ccc(C(=O)N[C@H]4C[C@@H](O)[C@@H](O)NC(=O)[C@@H]5[C@@H](O)[C@@H](C)CN5C(=O)[C@H]([C@H](O)CC(N)=O)NC(=O)[C@H]([C@H](O)[C@@H](O)c5ccc(O)c(OS(=O)(=O)O)c5)NC(=O)[C@@H]5C[C@@H](O)CN5C(=O)[C@H]([C@@H](C)O)NC4=O)cc3)no2)cc1 [micafungin]
caspofungin = compound: CC[C@H](C)C[C@H](C)CCCCCCCCC(=O)N[C@H]1C[C@@H](O)[C@@H](NCCN)NC(=O)[C@@H]2[C@@H](O)CCN2C(=O)[C@H]([C@H](O)CCN)NC(=O)[C@H]([C@H](O)[C@@H](O)c2ccc(O)cc2)NC(=O)[C@@H]2C[C@@H](O)CN2C(=O)[C@H]([C@@H](C)O)NC1=O [caspofungin]
flucytosine = compound: Nc1[nH]c(=O)ncc1F [flucytosine]
fluconazole = compound: OC(Cn1cncn1)(Cn1cncn1)c1ccc(F)cc1F [fluconazole]
voriconazole = compound: C[C@@H](c1ncncc1F)[C@](O)(Cn1cncn1)c1ccc(F)cc1F [voriconazole]
posaconazole = compound: CC[C@@H]([C@H](C)O)n1ncn(-c2ccc(N3CCN(c4ccc(OC[C@@H]5CO[C@@](Cn6cncn6)(c6ccc(F)cc6F)C5)cc4)CC3)cc2)c1=O [posaconazole]
itraconazole = compound: CCC(C)n1ncn(-c2ccc(N3CCN(c4ccc(OCC5COC(Cn6cncn6)(c6ccc(Cl)cc6Cl)O5)cc4)CC3)cc2)c1=O [itraconazole]
anidulafungin = compound: CCCCCOc1ccc(-c2ccc(-c3ccc(C(=O)N[C@H]4C[C@@H](O)[C@@H](O)NC(=O)[C@@H]5[C@@H](O)[C@@H](C)CN5C(=O)[C@H]([C@@H](C)O)NC(=O)[C@H]([C@H](O)[C@@H](O)c5ccc(O)cc5)NC(=O)[C@@H]5C[C@@H](O)CN5C(=O)[C@H]([C@@H](C)O)NC4=O)cc3)cc2)cc1 [anidulafungin]
amphotericin B = compound: C[C@@H]1[C@H](O)[C@@H](C)/C=C/C=C/C=C/C=C/C=C/C=C/C=C/[C@H](O[C@@H]2O[C@H](C)[C@@H](O)[C@H](N)[C@@H]2O)C[C@@H]2O[C@](O)(C[C@@H](O)C[C@@H](O)[C@H](O)CC[C@@H](O)C[C@@H](O)CC(=O)O[C@H]1C)C[C@H](O)[C@H]2C(=O)O [amphotericin B]

Candida albicans isolate 331 (Erg11p: E266D, Fur1p: WT, Tac1p: I558V,A377V,F189S,N174D,M170I,K87N)
MIC (micafungin): 0.015 mg/L [S] | MIC (caspofungin): 0.06 mg/L [S] | MIC (flucytosine): ≤ 0.06 mg/L [S] | MIC (fluconazole): 0.25 mg/L [S] | MIC (voriconazole): ≤ 0.008 mg/L [S] | MIC (posaconazole): 0.015 mg/L [S] | MIC (itraconazole): 0.06 mg/L [S] | MIC (anidulafungin): ≤ 0.015 mg/L [S] | MIC (amphotericin B): 0.25 mg/L [S]

Candida albicans isolate 318 (Erg11p: V488I,E266D, Fur1p: WT, Tac1p: N896S,I895T)
MIC (micafungin): 0.015 mg/L [S] | MIC (caspofungin): 0.03 mg/L [S] | MIC (flucytosine): ≤ 0.06 mg/L [S] | MIC (fluconazole): 0.25 mg/L [S] | MIC (voriconazole): ≤ 0.008 mg/L [S] | MIC (posaconazole): 0.015 mg/L [S] | MIC (itraconazole): ≤ 0.015 mg/L [S] | MIC (anidulafungin): ≤ 0.015 mg/L [S] | MIC (amphotericin B): 0.25 mg/L [S]

Candida albicans isolate 17 (Erg11p: V488I,E266D, Fur1p: WT, Tac1p: N896S)
MIC (micafungin): 0.015 mg/L [S] | MIC (caspofungin): 0.03 mg/L [S] | MIC (flucytosine): ≤ 0.06 mg/L [S] | MIC (fluconazole): 0.25 mg/L [S] | MIC (voriconazole): ≤ 0.008 mg/L [S] | MIC (posaconazole): 0.015 mg/L [S] | MIC (itraconazole): 0.03 mg/L [S] | MIC (anidulafungin): 0.03 mg/L [S] | MIC (amphotericin B): 0.25 mg/L [S]

Candida albicans isolate 92 (Erg11p: V488I,E266D, Fur1p: WT, Tac1p: N896S,I558V,A377V,F189S,N174D,M170I,K87N)
MIC (micafungin): 0.03 mg/L [S] | MIC (caspofungin): 0.06 mg/L [S] | MIC (flucytosine): 0.12 mg/L [S] | MIC (fluconazole): 1 mg/L [S] | MIC (voriconazole): 0.03 mg/L [S] | MIC (posaconazole): 0.06 mg/L [S] | MIC (itraconazole): 0.12 mg/L [S] | MIC (anidulafungin): ≤ 0.015 mg/L [S] | MIC (amphotericin B): 0.5 mg/L [S]

Candida albicans isolate 169 (Erg11p: V488I,E266D, Fur1p: WT, Tac1p: N896S,I895T)
MIC (micafungin): 0.015 mg/L [S] | MIC (caspofungin): 0.03 mg/L [S] | MIC (flucytosine): ≤ 0.06 mg/L [S] | MIC (fluconazole): 0.25 mg/L [S] | MIC (voriconazole): ≤ 0.008 mg/L [S] | MIC (posaconazole): 0.015 mg/L [S] | MIC (itraconazole): ≤ 0.015 mg/L [S] | MIC (anidulafungin): 0.03 mg/L [S] | MIC (amphotericin B): 0.25 mg/L [S]

Candida albicans isolate 226 (Erg11p: WT, Fur1p: WT, Tac1p: N896S)
MIC (micafungin): 0.015 mg/L [S] | MIC (caspofungin): 0.015 mg/L [S] | MIC (flucytosine): ≤ 0.06 mg/L [S] | MIC (fluconazole): 0.5 mg/L [S] | MIC (voriconazole): ≤ 0.008 mg/L [S] | MIC (posaconazole): 0.015 mg/L [S] | MIC (itraconazole): ≤ 0.015 mg/L [S] | MIC (anidulafungin): 0.03 mg/L [S] | MIC (amphotericin B): 0.25 mg/L [S]

Candida albicans isolate 317 (Erg11p: V437I, Fur1p: WT, Tac1p: N896S,I895T,L695F,I558V,A377V,F189S,N174D,M170I,L131I,K87N)
MIC (micafungin): 0.015 mg/L [S] | MIC (caspofungin): 0.03 mg/L [S] | MIC (flucytosine): ≤ 0.06 mg/L [S] | MIC (fluconazole): 0.25 mg/L [S] | MIC (voriconazole): ≤ 0.008 mg/L [S] | MIC (posaconazole): 0.015 mg/L [S] | MIC (itraconazole): ≤ 0.015 mg/L [S] | MIC (anidulafungin): 0.06 mg/L [S] | MIC (amphotericin B): 0.25 mg/L [S]

Candida albicans isolate 10 (Erg11p: K342R,E266D, Fur1p: WT, Tac1p: I558V,A377V,F189S,N174D,M170I,K87N)
MIC (micafungin): 0.015 mg/L [S] | MIC (caspofungin): 0.03 mg/L [S] | MIC (flucytosine): ≤ 0.06 mg/L [S] | MIC (fluconazole): 1 mg/L [S] | MIC (voriconazole): ≤ 0.008 mg/L [S] | MIC (posaconazole): 0.015 mg/L [S] | MIC (itraconazole): 0.03 mg/L [S] | MIC (anidulafungin): ≤ 0.015 mg/L [S] | MIC (amphotericin B): 0.25 mg/L [S]

Candida albicans isolate 127 (Erg11p: V488I,E266D, Fur1p: WT, Tac1p: WT)
MIC (micafungin): ≤ 0.008 mg/L [S] | MIC (caspofungin): 0.03 mg/L [S] | MIC (flucytosine): ≤ 0.06 mg/L [S] | MIC (fluconazole): 0.5 mg/L [S] | MIC (voriconazole): ≤ 0.008 mg/L [S] | MIC (posaconazole): 0.015 mg/L [S] | MIC (itraconazole): 0.03 mg/L [S] | MIC (anidulafungin): 0.03 mg/L [S] | MIC (amphotericin B): 0.5 mg/L [S]

Candida albicans isolate 175 (Erg11p: Y132H,T123I, Fur1p: R101C, Tac1p: WT)
MIC (micafungin): 0.015 mg/L [S] | MIC (caspofungin): 0.015 mg/L [S] | MIC (flucytosine): 0.12 mg/L [S] | MIC (fluconazole): 4 mg/L | MIC (voriconazole): 0.25 mg/L | MIC (posaconazole): 0.03 mg/L [S] | MIC (itraconazole): 0.06 mg/L [S] | MIC (anidulafungin): ≤ 0.015 mg/L [S] | MIC (amphotericin B): 0.25 mg/L [S]

Candida albicans isolate 38 (Erg11p: WT, Fur1p: WT, Tac1p: WT)
MIC (micafungin): ≤ 0.008 mg/L [S] | MIC (caspofungin): 0.03 mg/L [S] | MIC (flucytosine): ≤ 0.06 mg/L [S] | MIC (fluconazole): 0.5 mg/L [S] | MIC (voriconazole): ≤ 0.008 mg/L [S] | MIC (posaconazole): 0.015 mg/L [S] | MIC (itraconazole): 0.03 mg/L [S] | MIC (anidulafungin): ≤ 0.015 mg/L [S] | MIC (amphotericin B): 0.25 mg/L [S]

Candida albicans isolate 241 (Erg11p: D153E, Fur1p: WT, Tac1p: N896S)
MIC (micafungin): 0.015 mg/L [S] | MIC (caspofungin): 0.03 mg/L [S] | MIC (flucytosine): ≤ 0.06 mg/L [S] | MIC (fluconazole): 0.5 mg/L [S] | MIC (voriconazole): ≤ 0.008 mg/L [S] | MIC (posaconazole): 0.015 mg/L [S] | MIC (itraconazole): 0.06 mg/L [S] | MIC (anidulafungin): 0.06 mg/L [S] | MIC (amphotericin B): 0.5 mg/L [S]

Candida albicans isolate 39 (Erg11p: V488I,E266D, Fur1p: WT, Tac1p: I558V,A377V,F189S,N174D,M170I,K87N)
MIC (micafungin): 0.015 mg/L [S] | MIC (caspofungin): 0.06 mg/L [S] | MIC (flucytosine): ≤ 0.06 mg/L [S] | MIC (fluconazole): 0.25 mg/L [S] | MIC (voriconazole): ≤ 0.008 mg/L [S] | MIC (posaconazole): 0.015 mg/L [S] | MIC (itraconazole): 0.03 mg/L [S] | MIC (anidulafungin): 0.12 mg/L [S] | MIC (amphotericin B): 0.25 mg/L [S]

Candida albicans isolate 41 (Erg11p: WT, Fur1p: WT, Tac1p: WT)
MIC (micafungin): 0.015 mg/L [S] | MIC (caspofungin): 0.03 mg/L [S] | MIC (flucytosine): ≤ 0.06 mg/L [S] | MIC (fluconazole): 0.25 mg/L [S] | MIC (voriconazole): ≤ 0.008 mg/L [S] | MIC (posaconazole): 0.03 mg/L [S] | MIC (itraconazole): 0.03 mg/L [S] | MIC (anidulafungin): 0.06 mg/L [S] | MIC (amphotericin B): 1 mg/L [S]

Candida albicans isolate 304 (Erg11p: D153E, Fur1p: WT, Tac1p: I558V,A377V,M170V)
MIC (micafungin): 0.015 mg/L [S] | MIC (caspofungin): 0.03 mg/L [S] | MIC (flucytosine): ≤ 0.06 mg/L [S] | MIC (fluconazole): 1 mg/L [S] | MIC (voriconazole): ≤ 0.008 mg/L [S] | MIC (posaconazole): 0.015 mg/L [S] | MIC (itraconazole): 0.03 mg/L [S] | MIC (anidulafungin): 0.03 mg/L [S] | MIC (amphotericin B): 0.5 mg/L [S]

Candida albicans isolate 233 (Erg11p: WT, Fur1p: WT, Tac1p: N896S)
MIC (micafungin): 0.015 mg/L [S] | MIC (caspofungin): 0.015 mg/L [S] | MIC (flucytosine): ≤ 0.06 mg/L [S] | MIC (fluconazole): 0.25 mg/L [S] | MIC (voriconazole): ≤ 0.008 mg/L [S] | MIC (posaconazole): 0.03 mg/L [S] | MIC (itraconazole): ≤ 0.015 mg/L [S] | MIC (anidulafungin): ≤ 0.015 mg/L [S] | MIC (amphotericin B): 0.25 mg/L [S]

MIC of clinical C. albicans isolates, CLSI broth microdilution (ranges and time not stated); higher = less susceptible. Call: susceptible or wild type [S] / resistant or non-wild type [R] by CLSI breakpoints or epidemiological cut-offs; intermediate and dose-dependent carry no call here (the paper groups them with resistant). '<=' and '>=' mark each drug's lowest and highest value, inferred; the source prints them plain. Isolates are numbered anew.
